Test results from the RNAGym collection of RNA variant scans (doi:10.7554/elife.90254).
Read counts are not given, so values of variants with three or more changes are uncertain.

B1: LINE1-mini (parent)
chain: GGCAGAGCUCAACACAGCGUGGCAAAGUGGCUGUGGCUAGACUGCC

Variants of: B1
Test: self-cleavage, relative activity (ratio to wild type); higher = more cleavage; in vitro, sequencing; the parent is a self-cleaving ribozyme
With G29C G35U C37A the self-cleavage was 0.04. Variant G7C C8A A16G A26U G36U U38A has a self-cleavage of 0.4. Variant A14C A39U C45U has a self-cleavage of 0.05. C3A A4C A12C G30A C37A showed a self-cleavage of 0.06. C13G U28C G44C showed a self-cleavage of 0.05. Variant G5U U9G U32G A39G has a self-cleavage of 0.07. With A4U A6G U20A C31U the self-cleavage was 0.06. Variant G35C U38G C46U has a self-cleavage of 0. A4U A6C A16U G17C C31G showed a self-cleavage of 0.01. C23G G40U U43A gave a self-cleavage of 0.01. In the case of G2C C31U A41G, the self-cleavage is reported as 0.07. In the case of A4C G5C C13U A14U C18G, the self-cleavage is reported as 0.07. A4U C18G G33A showed a self-cleavage of 0.01. G1C U20A G27C showed a self-cleavage of 0.09. With A12C U32C G35C the self-cleavage was 0.03. With G7A G27C U28G G44C the self-cleavage was 0.1. C18G G30A U32A showed a self-cleavage of 0. For G2U G22A G35U G44U, the self-cleavage was 0.03. For G2C C31A U32C C37U, the self-cleavage was 0.04. For C10A U20G C46G, the self-cleavage was 0.01. In the case of C8G G27U G44C C46U, the self-cleavage is reported as 0.04. For G19U G36A A39U C46U, the self-cleavage was 0.09. U20G G29A G44C showed a self-cleavage of 0.29. G5C A11U G36C showed a self-cleavage of 0.04. U9C C13U A14G G22C showed a self-cleavage of 0.02. For A14G A25G C45A, the self-cleavage was 0.06. With A14G A25C C37G the self-cleavage was 0.02. Variant A4U A12C U32A C37U has a self-cleavage of 0. Work on A4C C8U U9A A11G A12C U20A U32G yielded a self-cleavage of 0.01. C8U A11U C15U U28G U34C gave a self-cleavage of 0.02. G17U G21A A26C G27C C46U showed a self-cleavage of 0.05. For C23G C31U U34G, the self-cleavage was 0.02. G1U U20C C23U gave a self-cleavage of 0.12. With C13A G30U C31U A39U G44U the self-cleavage was 0.02. With C8A U34A C37A C46A the self-cleavage was 0.05. With G1U A11G G22U U34G A41C the self-cleavage was 0.01. Variant G2U A25C G27U U43C has a self-cleavage of 0.01. With A16C C45G C46U the self-cleavage was 0.15. In the case of G5U A12C G21U U34C U38C, the self-cleavage is reported as 0.01. Variant A4U A11C U32G G36A has a self-cleavage of 0.05. With G1U C15G C42U the self-cleavage was 0.02. A25G G29U C37A showed a self-cleavage of 0.07. In the case of A25U U32C C46A, the self-cleavage is reported as 0.03. U20G C37G G40C C42A showed a self-cleavage of 0.07. With C10A C15G G17C the self-cleavage was 0.02. Work on C37G G40U C42U yielded a self-cleavage of 0.04. G29C C31U U43C showed a self-cleavage of 0.17. Work on U9A C18G G22C G27C G29A yielded a self-cleavage of 0.03. Variant A24U U32C G36A has a self-cleavage of 0.08. Work on C3U A12G C15G G21A yielded a self-cleavage of 0.02. With G1U G5A C31G U32C G35C C37U G44A the self-cleavage was 0.07. G5C C13G U34C gave a self-cleavage of 0.03. With A6U G40A A41U the self-cleavage was 0.27. U9A G30U C37A C42A showed a self-cleavage of 0.01. Work on C15U G27C G44C yielded a self-cleavage of 1.86. G2A A14U C18U G27C U28C C46G showed a self-cleavage of 0.08. Variant C13A C18A C23U C31G A41U has a self-cleavage of 0.09. Work on C3G A6C G19U G35U yielded a self-cleavage of 0.05. For G5A C23U G40U, the self-cleavage was 0.16. For G2C U34A G36C C42U, the self-cleavage was 0.01. With C3U G19U G27U U43A the self-cleavage was 0.03. With A16C G33A G40U the self-cleavage was 0.04. G7U U20G U38A C42U gave a self-cleavage of 0.04. G1A A16U G40U showed a self-cleavage of 0.03. G2A C13A C18A showed a self-cleavage of 0.03. U9A A16C C23A gave a self-cleavage of 0.22. With G27C G29U C37A the self-cleavage was 0.11. In the case of G5U A41U C46U, the self-cleavage is reported as 0.05. Work on C10G G19U U38A yielded a self-cleavage of 0. C10U C13A A25C gave a self-cleavage of 0.09. For C23U A24C A26G C31U, the self-cleavage was 0.21. G1U C10U G30C U34C G40U showed a self-cleavage of 0.01. With U28C G29U G40C C42G the self-cleavage was 0.06. G2U G5A G21A C37A showed a self-cleavage of 0.12. In the case of G27C G33C G44A, the self-cleavage is reported as 0.15. A11G A12U A14G G22A gave a self-cleavage of 0. G5U C15G G22A G30U C37G gave a self-cleavage of 0.06. G7U A16G U43A showed a self-cleavage of 0.09. Variant G5C G19A U32C has a self-cleavage of 0.04. In the case of G1A A4C A39U, the self-cleavage is reported as 0.1. With G5C A6U C10A C13A U32A U38A the self-cleavage was 0.02. Work on U9A A14G G33A yielded a self-cleavage of 0.01. U28G U32A U34C C45A showed a self-cleavage of 0.03. Variant G17A C31G G35C has a self-cleavage of 0.03. G2A A6G C8A A12C A25C U38A G40U U43A gave a self-cleavage of 0.03. For G7C A25U G30C G36C C37U, the self-cleavage was 0.06. Work on U9A A14G C46A yielded a self-cleavage of 0.03. With A6C G21A A24G the self-cleavage was 0.66. G17C G35U C45A showed a self-cleavage of 0.18. A16C C23U U34G gave a self-cleavage of 0. Variant G5U G7C G36A has a self-cleavage of 0.18. Work on C13G A25U U38C yielded a self-cleavage of 0.03. A6U G33A A39G showed a self-cleavage of 0.01. Work on A4C G29A C46A yielded a self-cleavage of 0.01. With C13A A14U C15U C18G C23U G29U C46G the self-cleavage was 0.03. Work on A14U C23G A24G U28G C46A yielded a self-cleavage of 0.07. In the case of A16C C18G G40A, the self-cleavage is reported as 0.03. In the case of A4U A11G G21A A25G G29U U43A, the self-cleavage is reported as 0.01. Work on C8A U20G G29A U34C yielded a self-cleavage of 0.13. A14U G36A A41G showed a self-cleavage of 0.17. G5A C13U U28C C42U showed a self-cleavage of 0.08. C13A A14C C18U showed a self-cleavage of 0.03. Work on G2A C15G G17U G33A C42G U43A yielded a self-cleavage of 0.06. In the case of U34A G36A A39C C42A, the self-cleavage is reported as 0.03. In the case of A11G G17C C18A A26C G29U C31G, the self-cleavage is reported as 0.02. With A16C C18A C23U A25U C31G the self-cleavage was 0.05. In the case of G7U A16G G44A, the self-cleavage is reported as 0.1. For A12G U34G C46G, the self-cleavage was 0.03. C3U A6G G7C G17U C23A C31G gave a self-cleavage of 0.01. A16G A25G G27U gave a self-cleavage of 0.06. C10A A26C G29U G40C A41G gave a self-cleavage of 0. G2C C8U A12G A24U gave a self-cleavage of 0.06. For C23U G40U C46U, the self-cleavage was 0.16. In the case of C10A G35A G36C, the self-cleavage is reported as 0.02. With G7A G27C C42U G44A the self-cleavage was 0.19. Variant G17U G19A C37A A39U has a self-cleavage of 0.08. For G7A G33A C37G A41U, the self-cleavage was 0.01. Work on G17C G22U C42U yielded a self-cleavage of 0.36. With G2U G5U G40A the self-cleavage was 0.04. G1U C13G A14U A24C gave a self-cleavage of 0.06. In the case of U9G C42A G44A C45U, the self-cleavage is reported as 0.04. In the case of G5A A6G C18U G22U G29A U38G A39G G44C, the self-cleavage is reported as 0.01. Variant G1A G2U G7C has a self-cleavage of 0.11. A6C C18A G30A showed a self-cleavage of 0.13. A26U G33U C37A showed a self-cleavage of 0.07. In the case of A11C A14U C15G G35U, the self-cleavage is reported as 0.02. With C18U A26U C37G U38G A41U the self-cleavage was 0.02. Variant A6C G27U U34G A41U G44C has a self-cleavage of 0.12. A4U A16C C31A G33U U38C gave a self-cleavage of 0.03. C10A C15A U20A G29U C42G gave a self-cleavage of 0.01. With C3U C23U G27C the self-cleavage was 0.16. In the case of G5C A11G G33U G44A, the self-cleavage is reported as 0.03. With G2U A26U U28G C42A the self-cleavage was 0. Work on G21C U34G G35C yielded a self-cleavage of 0.04. Variant C13U A24C U28A G36C G44U C45U has a self-cleavage of 0.02. Work on C15A A25G U28G yielded a self-cleavage of 0.03. Variant C3G A16C A24U A41G has a self-cleavage of 0.06. In the case of C13A C23A U28A U34G, the self-cleavage is reported as 0.01. For C10U G27C U34C G44A, the self-cleavage was 0.04. Work on C13A C23A G44A yielded a self-cleavage of 0.97. C23U G27U C31G G36A U43A C45A gave a self-cleavage of 0.01. G2U C23A A24C gave a self-cleavage of 0.04. With G5U A16U C18A G21C the self-cleavage was 0.01. With A6U A14C U34C A39G the self-cleavage was 0.01. C15U A24C U34G gave a self-cleavage of 0.02. For C18G C23U G29A, the self-cleavage was 0.21. Work on G2A A12G G40U yielded a self-cleavage of 0.03. With A4G U9A G22C G44A the self-cleavage was 0.08. For A26U C37A G40U, the self-cleavage was 0.23. In the case of G7A C18U G22A U32C C37A, the self-cleavage is reported as 0.05. With C8A A12U C31G the self-cleavage was 0.05. G17U A24G G30A gave a self-cleavage of 1.33. Variant G1A U9G A11U U28G U38C has a self-cleavage of 0.02. Work on G5A U32G C45A yielded a self-cleavage of 0.03. In the case of C3A A6U G27C G29A, the self-cleavage is reported as 0.05. In the case of C10A C18U G19A A26G, the self-cleavage is reported as 0.05. G29U C45G C46A gave a self-cleavage of 0.42. Variant C3U A26U U38C A39U G44A has a self-cleavage of 1.8. In the case of A6C G33A G35U U43C, the self-cleavage is reported as 0.05. For G7U U9G A16U, the self-cleavage was 0.09. C8G A14U U34A gave a self-cleavage of 0.07. Variant G2U C15G G19U has a self-cleavage of 0.01. Work on C3G A12C G27C yielded a self-cleavage of 0.01. Work on G5U A12C A24U A41G yielded a self-cleavage of 0.04. With C10U C15A G40A A41U the self-cleavage was 0.02. In the case of G2C G5C U9G C13U A14U U38G, the self-cleavage is reported as 0.01. G5U C10A A11U U38G showed a self-cleavage of 0.01.
